# Reference: PubChem BioAssay AID904 (National Center for Advancing Translational Sciences (NCATS), 2007)
# Out of some 55,000 compounds screened, about 530 (0.96%) were called active. The inconclusive results got no clear call from the source; some entries with a clear call stand among them for comparison. Calls follow the shape of the dose curve; as a rule, active = well fitted cell-killing curve with a large enough effect; inconclusive = small, poorly fitted or top-dose-only effect; inactive = no such curve, though single readings can be large or run the other way. Potencies beside an inconclusive call are fits to weak or partial responses and may not hold up.
# Experiment: qHTS Screen for Compounds that Selectively Target Cancer Cells with p53 Mutations: Cytotoxicity of p53 Null Cells at the Nonpermissive Temperature; also: nearly all actives have a fitted effect of over 50% in size;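 as to activity, negative = cell killing: 0% = DMSO only and -100% = full killing by 100 µM tamoxifen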
# Conditions: H1299 p53-null (neo) cells, 39C, ATPlite viability, 24 h; activity, negative = cell killing: at 46.1 µM (top of the series)
# How it was run: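 Luminescent ATP signal reported cell survival after H1299 lines (neo, p53 null; or p53 A138V) received up to 46 uM compound and 24 hr incubation at 39C.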
# Potency is read from the fitted curve at half-maximal effect; tags tell the direction and shape of the fitted curve.
SMILES,Potency,"activity, negative = cell killing"
Cc1ccccc1-c1noc(-c2cc(C(C)C)[nH]n2)n1,"inconclusive: 14.1 µM [cytotoxic, single point]",–
CC(C)C(=O)c1cc2c(cc1NC(=O)c1ccccc1F)OCCO2,inactive,–
Cc1ccc(O)c(NC(=O)CCSc2nc(-c3ccco3)cc(C(F)(F)F)n2)c1,"inconclusive: 17.8 µM [cytotoxic, single point]",–
CC(C)Oc1ccc(C(=O)Nc2nc3c(s2)CC(C(C)(C)C)CC3)cc1 (stereo not drawn),"inconclusive: 35.5 µM [cytotoxic, single point]",–
COc1ccc(Nc2ncnc3c2nc2n3CCCC2)cc1Cl,inactive,–
Cc1cc(Nc2cccc(C(F)(F)F)c2)nc2ccc(NC(=O)c3cccnc3)cc12,"inconclusive: 17.8 µM [cytotoxic, partial curve, poor fit]",–
CCCCCOc1ccc(NC(=O)Cn2c(-c3cncs3)nc3ccccc32)cc1,"inconclusive: 2 µM [cytotoxic, partial curve, poor fit]",–
COc1cccc(CNC(=O)Cn2c(SCC(=O)Nc3ccc(C)c(C)c3)nc3ccccc32)c1,"inconclusive: 22.4 µM [cytotoxic, partial curve, poor fit]",–
O=C(NCCCN1CCN(c2ccccc2F)CC1)C1COc2ccccc2C1 (stereo not drawn),inactive,–
O=C(NCc1ccccc1Cl)c1ccc(NC(=O)c2nsc3ccccc23)cc1,"inconclusive: 8.91 µM [cytotoxic, full curve]",–
COc1ccc(Cl)cc1NC(=O)Cn1nc(C(F)(F)F)c2c1CCC2,"inconclusive: 12.6 µM [cytotoxic, partial curve, poor fit]",–
Cc1cccc(OCCCSc2nc(-c3ccc(C(C)(C)C)cc3)nc3cc(=O)[nH]n23)c1C,active: 12.6 µM,–
O=C(c1ccc(CS(=O)c2ccccc2Cl)o1)N1CCN(c2cccc(C(F)(F)F)c2)CC1 (stereo not drawn),"inconclusive: 11.2 µM [cytotoxic, partial curve]",–
Cn1cc(-c2cc3n(n2)CCC(=O)N3CCCC(=O)Nc2ccccc2Cl)c2ccccc21,inactive,–
CCCOc1cccc(C(=O)Nc2cccc(-c3nc4ncccc4o3)c2C)c1,inactive,–
O=C(Nc1nc(-c2ccccn2)cs1)C1COc2ccccc2O1 (stereo not drawn),"inconclusive: 1.78 µM [cytotoxic, full curve, poor fit]",–
CCOC(=O)c1ccc(NC(=O)C2CCCN(c3ncnc4onc(-c5ccc(F)cc5)c34)C2)cc1 (stereo not drawn),"inconclusive: 3.16 µM [cytotoxic, single point]",–
Cc1ccc(OCC(=O)Nc2cccc(-c3nc4ccccc4s3)c2)cc1,"inconclusive: 11.2 µM [cytotoxic, partial curve, poor fit]",–
O=C(NCc1cccs1)c1ccc(Cn2c(SCc3ccccc3)nc3cccnc32)cc1,"inconclusive: 10 µM [cytotoxic, partial curve]",–
COc1ccc(N2C(=O)CS(=O)(=O)C23C(=O)N(Cc2cccc(F)c2)c2ccccc23)cc1OC (stereo not drawn),inactive,–
CCC(=O)N1CCc2cc(S(=O)(=O)CCC(=O)Nc3ccc(OC(F)(F)F)cc3)ccc21,inactive,–

SMILES,Potency,"activity, negative = cell killing"
O=C(Cn1cc(SCc2ccc(C(F)(F)F)cc2)c2ccccc21)N1CCOCC1,"inconclusive: 31.6 µM [cytotoxic, single point]",–
Cc1cccc2sc(NC(=O)[C@@H]3CCCN3C(=O)c3cccs3)nc12,–,inactive: 13% [at 1.84 µM]
CC(=O)c1ccc(NC(=O)CN2C(=O)CCc3ccccc32)cc1,"inconclusive: 15.8 µM [cytotoxic, partial curve]",–
CN(c1ccccc1)S(=O)(=O)c1nnc(NC(=O)COc2ccccc2)s1,"inconclusive: 2 µM [cytotoxic, full curve, poor fit]",–
CCOC(=O)C1CCN(c2c(C(=O)c3ccc(OC)cc3)cnc3ccccc23)CC1,"inconclusive: 31.6 µM [cytotoxic, single point]",–
CC(C)c1ccc(CNc2nc(-c3ccco3)nn2C(=O)c2ccc([N+](=O)[O-])cc2)cc1,"inconclusive: 10 µM [cytotoxic, partial curve, poor fit]",–
O=C(CCSCc1cccc(Cl)c1)NCc1ccc(F)cc1Cl,inactive,–
COc1ccc2oc(-c3ccc(C)c(NC(=O)c4ccc(-c5ccccc5[N+](=O)[O-])o4)c3)nc2c1,"inconclusive: 15.8 µM [cytotoxic, single point]",–
O=[N+]([O-])c1cc(-c2nc(-c3ccco3)no2)ccc1NCc1ccccc1,"inconclusive: 0.0079 µM [cytotoxic, full curve, poor fit]",–
CCOC(=O)c1ccc(-c2ccc(/C=C(\C#N)c3nc4ccc(C)cc4[nH]3)o2)cc1,active: 6.31 µM,–
CCC(C)NC(=O)CCc1c(C)nc2c(c(C)nn2-c2ccc(C)cc2)c1C (stereo not drawn),"inconclusive: 12.6 µM [cytotoxic, single point]",–
CCOc1ccc(-n2nc(CO)c(C(=O)NCc3cccs3)n2)cc1,"inconclusive: 2.82 µM [cytotoxic, partial curve]",–
Fc1ccc(-n2ncc3c(N4CCCCCC4)ncnc32)cc1,active: 14.1 µM,–
CCc1ccc(NC(=O)c2ccc(F)c(S(=O)(=O)NCc3ccc(Cl)c(Cl)c3)c2)cc1,"inconclusive: 10 µM [cytotoxic, single point]",–
CCOc1ccccc1CNC(=O)c1ccc2c(c1)nc1n2CCCCC1,"inconclusive: 35.5 µM [cytotoxic, partial curve, poor fit]",–
Cc1c(Nc2nc3ccccc3n3c(C)nnc23)cccc1C(=O)O,"inconclusive: 25.1 µM [cytotoxic, partial curve]",–
Cc1ccc(Cl)cc1-n1ncc2c(NCCCc3ccccc3)ncnc21,inactive,–
CCOc1ccc(N2C(=O)c3n[nH]c(-c4cccs4)c3C2c2cccc(F)c2)cc1 (stereo not drawn),"inconclusive: 20 µM [cytotoxic, partial curve, poor fit]",–
CCCc1cc(=O)n2[nH]c(NC(=O)c3ccccc3Cl)nc2n1,"inconclusive: 1.58 µM [cytotoxic, partial curve]",–
Cc1ccc(NC(=O)N2CCc3cc(S(=O)(=O)N4CCC(C)CC4)ccc32)cc1F,inactive,–
CCC1CN(C(=O)Nc2cc(C)ccc2OC)c2cc(Cl)ccc2O1 (stereo not drawn),"inconclusive: 35.5 µM [cytotoxic, single point]",–

SMILES,Potency,"activity, negative = cell killing"
Cc1ccc(NC(=O)CSc2ccc3nnc(CCNS(=O)(=O)c4ccccc4)n3n2)cc1Cl,"inconclusive: 0.0794 µM [cytotoxic, full curve]",–
Cc1ccc2nc(-c3cccc(NC(=O)c4ccc(Br)o4)c3)oc2c1,"inconclusive: 31.6 µM [cytotoxic, partial curve, poor fit]",–
COc1ccccc1CNC(=O)CCn1c(=O)c2ccccc2n(CC(=O)Nc2ccc(Br)cc2F)c1=O,"inconclusive: 12.6 µM [cytotoxic, partial curve]",–
O=C(CN1C(=O)COc2ccc(S(=O)(=O)N3CCCC3)cc21)N1CCN(c2ccc(Cl)cc2)CC1,"inconclusive: 0.004 µM [cytotoxic, full curve, poor fit]",–
CCOC(=O)c1c(C)[nH]c(C)c1S(=O)(=O)N1CCC(C(=O)N2CCN(c3ccccc3)CC2)CC1,inactive,–
CC(C(=O)NCc1ccc(Cl)cc1)n1ccc2cc(S(=O)(=O)N3CCCCCC3)ccc21 (stereo not drawn),"inconclusive: 0.0316 µM [cytotoxic, full curve, poor fit]",–
CCCN(CCC)CC(O)Cn1cc(/C=C/C(=O)c2ccc(C)cc2)c2ccccc21 (stereo not drawn),"inconclusive: 10 µM [cytotoxic, partial curve]",–
Brc1ccc(-c2nc3ccccn3c2Nc2ccc3c(c2)OCCO3)o1,"inconclusive: 3.98 µM [cytotoxic, full curve]",–
CCOc1ccc(CNC(=O)CSc2cc(=O)n(CC)c3ccccc23)cc1,inactive,–
NC(=O)C1CCN(C(=O)c2cccc(NC(=O)c3nsc4ccccc34)c2)CC1,"inconclusive: 15.8 µM [cytotoxic, partial curve, poor fit]",–
CC(C)C(=O)Nc1ccccc1OCc1cc(=O)n2ccccc2n1,inactive,–
CCOc1ccc(Nc2ncnc3c2nc2n3CCCC2)cc1,inactive,–
O=C(O)c1ccc2nc(-c3cc4cccc(O)c4oc3=O)[nH]c2c1,"inconclusive: 31.6 µM [cytotoxic, single point]",–
NS(=O)(=O)c1ccc(NC(=O)CN2C(=O)COc3ccc(Cl)cc32)cc1,inactive,–
Cc1ccn2c(Nc3ccc4c(c3)OCO4)c(-c3ccco3)nc2c1,"inconclusive: 31.6 µM [cytotoxic, single point]",–
CCCn1c2ccccc2c2cnn(CC(=O)N(CCCOC(C)C)Cc3ccco3)c(=O)c21,"inconclusive: 11.2 µM [cytotoxic, partial curve]",–
Cc1ccc(C)c(NC(=O)CSc2nncn3c2cc2sccc23)c1,"inconclusive: 31.6 µM [cytotoxic, single point]",–
CCS(=O)(=O)c1ncc(Cl)c(C(=O)N(Cc2ccccc2)Cc2ccco2)n1,"inconclusive: 10 µM [cytotoxic, partial curve]",–
COc1ccc(NC(=O)c2c(C)oc3ccc(O)c(CN4CCCC(C)C4)c23)cc1Cl (stereo not drawn),"inconclusive: 2.51 µM [cytotoxic, full curve, poor fit]",–
COc1ccc(CCNC(=O)CCCn2c(=O)c3ccccc3n(CC(=O)Nc3c(C)cc(C)cc3C)c2=O)cc1OC,"inconclusive: 20 µM [cytotoxic, single point]",–
CCc1ccc(-n2c(=O)c3cccnc3n2CC(=O)N(CC)c2cccc(C)c2)cc1,"inconclusive: 20 µM [cytotoxic, single point]",–
